Test results from a collection of fitness landscapes (doi:10.1126/science.1257360).
Some of the results follow.

B1: PhoQ; a variant is named by its letters at X, in order, P23837 (parent)
chain: MKKLLRLFFPLSLRVRFLLATAAVVLVLSLAYGMVALIGYSVSFDKTTFRLLRGESNLFYTLAKWENNKLHVELPENIDKQSPTMTLIYDENGQLLWAQRDVPWLMKMIQPDWLKSNGFHEIEADVNDTSLLLSGDHSIQQQLQEVREDDDDAEMTHSVAVNVYPATSRMPKLTIVVVDTIPVELKSSYMVWSWFIYVLSANLLLVIPLLWVAAWWSLRPIEALAKEVRELEEHNRELLNPATTRELTSLVRNLNRLLKSERERYDKYRTTLTDLTHSLKTPLXXLQXXLRSLRSEKMSVSDAEPVMLEQISRISQQIGYYLHRASMRGGTLLSRELHPVAPLLDNLTSALNKVYQRKGVNISLDISPEISFVGEQNDFVEVMGNVLDNACKYCLEFVEISARQTDEHLYIVVEDDGPGIPLSKREVIFDRGQRVDTLRPGQGVGLAVAREITEQYEGKIVAGESMLGGARMEVIFGRQHSAPKDE

Variants of: B1
Test: enrichment ratio after two sorts for PhoP signalling (ratio (wild type AVST 3.29)); higher = more functional
Conditions: with PhoP (E. coli)

Variant	enrichment ratio
MEWS	≤ 0.25
EVAA	≤ 0.25
LTVY	≤ 0.25
VYCA	0.41
YQII	≤ 0.25
DEVH	≤ 0.25
EYRI	≤ 0.25
LETN	≤ 0.25
DHYP	≤ 0.25
GMQR	≤ 0.25
FSMV	9.33
PYEE	≤ 0.25
GLEF	≤ 0.25
IHMM	≤ 0.25
SGTQ	17.4
ITNT	≤ 0.25
IHED	≤ 0.25
MHAA	≤ 0.25
VDPL	≤ 0.25
YLGY	≤ 0.25
GKWH	≤ 0.25
RAFC	≤ 0.25
FWKP	≤ 0.25
RYIG	≤ 0.25
DNIE	≤ 0.25

Variant	enrichment ratio
TTAN	6.61
NNRL	≤ 0.25
RLNR	≤ 0.25
DYYY	≤ 0.25
SVEP	≤ 0.25
RCSH	≤ 0.25
LMLK	≤ 0.25
PTFP	≤ 0.25
YEPP	≤ 0.25
GLRD	≤ 0.25
QECP	≤ 0.25
SACE	11.7
MAYN	16.6
QASQ	23.3
SHHQ	≤ 0.25
SVCW	≤ 0.25
TLKA	≤ 0.25
ILWV	≤ 0.25
RLET	≤ 0.25
IHCK	≤ 0.25
EQNS	≤ 0.25
PGWY	≤ 0.25
HIRA	≤ 0.25
HMQR	≤ 0.25
RMFM	≤ 0.25

Variant	enrichment ratio
DESQ	≤ 0.25
QIDA	≤ 0.25
MLHE	≤ 0.25
WPSW	≤ 0.25
IGVI	≤ 0.25
WDQI	≤ 0.25
RMAP	≤ 0.25
DHEV	≤ 0.25
YPMS	≤ 0.25
RDKC	≤ 0.25
WMLE	≤ 0.25
HMYE	≤ 0.25
YNWG	≤ 0.25
YNCM	1.98
HSIY	≤ 0.25
APHC	≤ 0.25
PAIL	≤ 0.25
MPHW	≤ 0.25
PIMH	≤ 0.25
SDPT	≤ 0.25
VHRV	≤ 0.25
FHIW	≤ 0.25
RWHN	≤ 0.25
MILI	3.97
DTDH	≤ 0.25

Variant	enrichment ratio
FYCG	≤ 0.25
LIPQ	≤ 0.25
DPFW	≤ 0.25
HDDD	≤ 0.25
MGES	≤ 0.25
INKR	≤ 0.25
WGIE	≤ 0.25
MMGG	≤ 0.25
PGFS	≤ 0.25
FLFW	≤ 0.25
YACM	8.41
TPYA	≤ 0.25
SDAI	4.77
FLEC	≤ 0.25
DEAD	≤ 0.25
DIRQ	≤ 0.25
TALI	18.1
ASLM	15.3
GMYK	≤ 0.25
DLQI	≤ 0.25
EFCC	≤ 0.25
MGKM	≤ 0.25
EFCY	≤ 0.25
QRNP	≤ 0.25
KVCW	≤ 0.25

Variant	enrichment ratio
IWEC	≤ 0.25
WETF	≤ 0.25
YILC	≤ 0.25
ANAK	≤ 0.25
MSGK	≤ 0.25
KEAR	≤ 0.25
FEAA	≤ 0.25
PYIM	≤ 0.25
MTFS	≤ 0.25
YCAM	≤ 0.25
ANFT	≤ 0.25
GSIE	≤ 0.25
AGKH	≤ 0.25
IPMW	≤ 0.25
SNSR	≤ 0.25
GMEW	≤ 0.25
HMHN	≤ 0.25
RACW	≤ 0.25
ANWQ	≤ 0.25
LDSD	≤ 0.25
IKVR	≤ 0.25
KDSI	≤ 0.25
DLMC	≤ 0.25
AMMQ	13.1
TKRS	0.257

Variant	enrichment ratio
QEVK	≤ 0.25
DMGN	≤ 0.25
YRMT	≤ 0.25
NVTF	≤ 0.25
HPTW	≤ 0.25
TANM	19.5
DNTF	≤ 0.25
KCNG	≤ 0.25
KMFS	≤ 0.25
NSSY	≤ 0.25
AKFM	0.887
DFAV	≤ 0.25
MHAN	≤ 0.25
SNLI	11.3
IAAC	0.266
NNKH	≤ 0.25
PLYN	≤ 0.25
FIGD	≤ 0.25
GKLK	≤ 0.25
RYDR	≤ 0.25
AKLK	≤ 0.25
TCIR	≤ 0.25
ASRV	≤ 0.25
LLML	≤ 0.25
NQCM	≤ 0.25

Variant	enrichment ratio
GRSY	≤ 0.25
YTVM	≤ 0.25
HLPT	≤ 0.25
RNTY	≤ 0.25
SPIR	≤ 0.25
KQCI	≤ 0.25
DTTA	≤ 0.25
DVLQ	≤ 0.25
QQQI	≤ 0.25
RPHI	≤ 0.25
STLP	≤ 0.25
ERYW	≤ 0.25
LTCM	≤ 0.25
VYCE	≤ 0.25
DGSD	≤ 0.25
YLAH	0.291
KQSR	≤ 0.25
VESV	0.597
FLEQ	≤ 0.25
EQRG	≤ 0.25
FKED	≤ 0.25
TNTA	10.1
DVHR	≤ 0.25
MEIA	≤ 0.25
VTDP	≤ 0.25

Variant	enrichment ratio
EMSH	≤ 0.25
SRWL	≤ 0.25
GRRH	≤ 0.25
SRVS	≤ 0.25
HFTQ	≤ 0.25
YEWT	0.634
YYMV	≤ 0.25
DPPT	≤ 0.25
MYDW	≤ 0.25
FFAM	≤ 0.25
LWSE	≤ 0.25
NVNR	≤ 0.25
CRYF	≤ 0.25
MCCI	≤ 0.25
AHFD	≤ 0.25
LVRR	≤ 0.25
QFPW	≤ 0.25
QYRS	≤ 0.25
KTEC	≤ 0.25
FCQS	≤ 0.25
